Assay results published in PubChem BioAssay AID686979 (National Center for Advancing Translational Sciences (NCATS), 2013).
The whole screen tested about 420,000 compounds, of which about 50,000 (12%) were called active. The inconclusive results got no clear call from the source; some entries with a clear call stand among them for comparison. Calls follow the shape of the dose curve; as a rule, active = well fitted inhibition curve with a large enough effect; inconclusive = small, poorly fitted or top-dose-only effect; inactive = flat fitted curve, though single readings scatter. Potencies of inconclusive entries are left out as doubtful fits.

Test: qHTS for Inhibitors of human tyrosyl-DNA phosphodiesterase 1 (TDP1): qHTS in cells in presence of CPT; also: nearly all actives have a fitted effect of over 55% in size
Settings: chicken DT40 Tdp1-/-;hTDP1 cells + 20 nM CPT, ATP luminescence, 48 h; activity change, negative = growth inhibition: at 46.2 µM (top of the series) unless noted
Procedure, shortened: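 Chicken DT40 Tdp1-/- cells complemented with human TDP1, 400 cells/well, exposed to compounds plus 20 nM camptothecin for at least 48 h at 37 C; viability read as ATP content by CellTiter-Glo luminescence.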
% is scaled to controls: 0 for no effect and ±100 for the full control effect; potency is read from the fitted curve at half-maximal effect; tags tell the direction and shape of the fitted curve.

Row | Compound | Potency | activity change, negative = growth inhibition
1 | Cc1cccc(CC(=O)NCC2CCCCC2)c1 | inconclusive [inhibitor, single point] | –
2 | Cc1ccc(-n2nc(C(=O)N3CCN(C)CC3)c3c4ccccc4n(C)c3c2=O)cc1 | inactive | –
3 | O=C(NC1CC1)c1ccc2nc([C@@H]3O[C@H](CO)[C@H](O)[C@H](O)[C@H]3O)[nH]c2c1 | inactive | –
4 | O=[N+]([O-])c1cccc2ncccc12 | inconclusive [inhibitor, single point] | –
5 | COc1ccc(CC(=O)OC(C)C(=O)Nc2ccc(S(N)(=O)=O)cc2)cc1 (stereo not given) | inactive | –
6 | O=C(c1ccc(S(=O)(=O)N2CCCCC2)cc1)N1CCN=C1SCc1cccnc1 | active: 16.4 µM | –
7 | CCCn1c(=N)n(CC(=O)c2cccs2)c2ccccc21 | inconclusive [inhibitor, single point] | –
8 | COc1cccc(/C=C2\SC(=S)N(CCC(=O)N3CCCCC3CCO)C2=O)c1 (stereo not given) | active: 13 µM | –
9 | COc1ccc(NC(=O)c2cccc(-n3c(C)ccc3C)c2)c(OC)c1 | inconclusive [inhibitor, single point] | –
10 | O=C(Cn1c(=O)cnc2ccccc21)NC1CCC(O)CC1 (stereo not given) | inactive | –
11 | COc1ccc(-c2nsc(SCC(=O)NCc3ccc4c(c3)OCO4)n2)cc1 | inconclusive [inhibitor, single point] | –
12 | COc1ccc(CN2C(=O)C(CC(=O)NC3CC3)CC(C(=O)N(C)C)=C2C)cc1 (stereo not given) | inactive | –
13 | Cc1ccc(S(=O)(=O)c2nc(S(=O)(=O)c3ccc(C)cc3)c(N3CCN(CCO)CC3)s2)cc1 | active: 23.1 µM | –
14 | CCOc1ccc(CN(C)C(=O)c2cccc(S(=O)(=O)Nc3ccccc3OC)c2)cc1OC | inconclusive [inhibitor, single point] | –
15 | CC(=O)c1ccc(NC(=O)Nc2ccncc2)cc1 | inconclusive [inhibitor, single point] | –
16 | C=CCN1C(=O)C(O)(CC(=O)c2ccc(OC)cc2OC)c2cc(Br)ccc21 (stereo not given) | inconclusive [inhibitor, single point] | –
17 | COc1ccc(CNC(=O)CCCN2C(=O)NC3(CCCC3)C2=O)cc1 | inactive | –
18 | Cn1nc([N+](=O)[O-])c2c(-c3nc4ccccc4s3)c(N)n(C3CCCCC3)c2c1=O | inconclusive [inhibitor, single point] | –
19 | COc1cccc(CNC(=O)c2ccccc2SCC(=O)N2CCCC2)c1 | inactive | –
20 | Clc1ccccc1CN1CCC(Cc2ccccc2)CC1 | inconclusive [inhibitor, single point] | –
21 | COc1ccc(-c2cc(C(=O)NCCc3ccccc3)c3c(-c4ccccc4)[nH]nc3n2)cc1OC | active: 16.4 µM | –
22 | Cc1ccc(NC(=O)NCCCN2CCCC2=O)cc1 | inactive | –
23 | Cc1ccc(NC(=O)C2CCCN(S(=O)(=O)c3ccc4c(c3)oc(=O)n4C)C2)cc1Cl (stereo not given) | inconclusive [inhibitor, single point] | –

Row | Compound | Potency | activity change, negative = growth inhibition
24 | COc1ccc(S(=O)(=O)Nc2ccc(Cc3ccncc3)cc2)cc1C | active: 13 µM | –
25 | Cc1ccc([C@H]2N[C@]3(CCCN(Cc4ccccc4)C3=O)[C@H]3C(=O)N(Cc4ccccc4)C(=O)[C@@H]23)cc1 | inconclusive [inhibitor, single point] | –
26 | O=c1c(-c2cccs2)nc2ccccc2n1C(CCc1ccccc1)c1nc2ccccc2[nH]1 (stereo not given) | inconclusive [inhibitor, single point] | –
27 | CCOc1ccc(NC(=O)C(=O)c2cc(C)n(-c3cc(C)cc(C)c3)c2C)cc1 | inconclusive [inhibitor, single point] | –
28 | NS(=O)(=O)c1ccc(CCNC(=O)COC(=O)Cc2c(F)cccc2Cl)cc1 | inactive | –
29 | O=C1c2ccccc2C(Nc2ccc(S(=O)(=O)N3CCOCC3)cc2)N1c1cccnc1 (stereo not given) | inactive | –
30 | CC(C)(C)OC(=O)N1CCC(c2c(C(=O)NC3CCN(Cc4ccccc4)CC3)cnn2-c2ccc(F)cc2F)CC1 | active: 11.6 µM | –
31 | CCCOc1ccc(C(=O)OCCN(CC)CC)cc1N | inactive | –
32 | COc1ccc(CCNC(=O)c2ccc3c(c2)CCN3S(=O)(=O)c2ccc(C)cc2)cc1 | inconclusive [inhibitor, single point] | –
33 | CCc1nc2ccc(C(=O)N(C)CCCN(C)C)cn2c1N(C)Cc1cc2ccccc2s1 | inconclusive [inhibitor, single point] | –
34 | CCCCOCCCNS(=O)(=O)Cc1ccccc1 | inactive | –
35 | CN1CCN(/N=C/c2ccc(N(c3ccccc3)c3ccccc3)cc2)CC1 | inconclusive [inhibitor, single point] | –
36 | NC(=O)N/N=C/c1sc(N2CCCCC2)nc1-c1cccs1 | – | inconclusive: -34.7% [inhibitor]
37 | CCCCC1=CC2=CC(=O)C(C)(OC(=O)CC)C(=O)C2=CN1CCc1ccc(Br)cc1 (stereo not given) | inconclusive [inhibitor, single point] | –
38 | COc1ccc2[nH]c(=O)c(CN(Cc3cccs3)Cc3nnnn3Cc3ccccc3)cc2c1 | inconclusive [inhibitor, single point] | –
39 | CCOC(=O)c1nc(NCc2cccc(OC)c2)c2ccccc2n1 | inconclusive [inhibitor, single point] | –
40 | CC(C)=C(C)c1cc2nc(NCCCN(C)C)n(C)c(=O)c2s1 | inactive | –
41 | CC(=O)N(c1ccccc1)C1CC(C)N(C(=O)c2ccccc2)c2ccccc21 (stereo not given) | active: 8.2 µM | –
42 | Cc1ccc(C)c(NC(=O)CSc2nnc(CSc3nc(C)cc(C)n3)n2Cc2ccco2)c1 | inconclusive [inhibitor, partial curve, poor fit] | –
43 | CCN(CC(=O)Nc1c(F)cccc1F)C(=O)CCCc1c[nH]c2ccccc12 | inconclusive [inhibitor, single point] | –
44 | COc1ccccc1CCNC(=O)C(=O)NCC(c1cccs1)S(=O)(=O)c1cccs1 (stereo not given) | inconclusive [inhibitor, single point] | –
45 | COc1ccc(CN2CCN(c3cccc(C)c3C)CC2)cc1OC | inactive | –
